Test results reported in the supplement of paper PMC3334620.
Over roughly 33,000 sequences, “E-score (-0.5 to 0.5)” has its median near -0.012; the highest 2% begin near 0.29. Some of the results follow.

Target: T1, Ybr033w (UniProt P38073)
T1 sequence: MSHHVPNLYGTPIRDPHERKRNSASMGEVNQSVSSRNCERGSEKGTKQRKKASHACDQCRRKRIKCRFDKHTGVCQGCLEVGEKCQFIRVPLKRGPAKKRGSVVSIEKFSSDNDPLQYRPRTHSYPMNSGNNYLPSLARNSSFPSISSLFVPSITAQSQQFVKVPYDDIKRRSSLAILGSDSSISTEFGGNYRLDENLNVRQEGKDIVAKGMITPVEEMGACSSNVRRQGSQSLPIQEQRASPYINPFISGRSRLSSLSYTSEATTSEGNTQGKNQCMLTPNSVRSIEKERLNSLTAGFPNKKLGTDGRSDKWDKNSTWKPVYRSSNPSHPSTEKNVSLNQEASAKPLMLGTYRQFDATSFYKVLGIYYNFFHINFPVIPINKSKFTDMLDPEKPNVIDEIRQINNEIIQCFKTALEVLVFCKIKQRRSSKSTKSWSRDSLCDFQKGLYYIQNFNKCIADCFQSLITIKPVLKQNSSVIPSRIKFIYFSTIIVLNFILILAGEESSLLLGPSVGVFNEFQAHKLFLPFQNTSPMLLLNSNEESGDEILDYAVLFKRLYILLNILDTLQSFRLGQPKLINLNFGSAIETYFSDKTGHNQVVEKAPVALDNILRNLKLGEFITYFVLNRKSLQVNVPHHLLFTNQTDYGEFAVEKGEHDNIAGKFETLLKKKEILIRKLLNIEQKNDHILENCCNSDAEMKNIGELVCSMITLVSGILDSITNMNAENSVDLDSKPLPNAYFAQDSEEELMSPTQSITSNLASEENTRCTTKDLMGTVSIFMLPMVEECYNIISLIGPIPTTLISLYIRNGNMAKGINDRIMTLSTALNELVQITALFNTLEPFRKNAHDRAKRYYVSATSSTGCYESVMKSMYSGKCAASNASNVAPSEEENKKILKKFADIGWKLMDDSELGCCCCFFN
Experiment: PBM E-score (8-mer binding enrichment) (E-score (-0.5 to 0.5)); higher = stronger / more preferred TF binding; most listed sequences are background and not binding sites
Details: protein concentration: 200 nM; construct: GST-full length
Procedure, shortened: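 Universal all-10-mer Agilent arrays, fresh or stripped once, were converted to double-stranded form by primer extension. GST-tagged yeast transcription factors from PURExpress in vitro transcription/translation, full-length or DNA-binding domain only, were applied at about 100-200 nM and detected with fluorescent anti-GST. After masliner normalisation, the Universal PBM Analysis Suite scored each ungapped eight-base word together with its reverse complement by E-score.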

Sequence | PBM E-score
GGGAAAGA | -0.00714
TAAAGATA | 0.213
GGGTGCAA | 0.0248
GGAGCATA | -0.0292
GTTTTCAA | 0.146
ACTTGGTC | 0.233
ACTATGGG | -0.0842
CACCGTTC | -0.12
CCGCCACG | -0.188
AGTCGTCC | -0.0173
AAGCATAC | 0.0655
ACTGCCAC | -0.0586
GGCGCTGA | 0.0187
ATCATGGC | 0.0203
ACATGTCG | 0.191
ATAGGAAG | 0.0807
ATGCCAGG | -0.222
AGGAACTA | 0.131
CGTGATCA | -0.0179
AATCGTTA | 0.111
ATATGCCC | -0.0433
TCCACGGA | 0.102
ATAAAGCA | 0.193
ATATCAAG | 0.253
CCCCTGAG | -0.264

Sequence | PBM E-score
AGATGTAA | 0.161
CATACAGG | -0.13
ACTGAGGG | -0.311
CTATCATC | 0.2
CGGTCCAA | -0.274
TTCGCGAA | 0.193
CATAGATA | 0.155
CGGAAAGC | 0.0357
ATCTGCCC | -0.183
AAACTTAG | 0.176
TCGATACA | 0.298
ATGGAAGC | 0.04
CAGACATC | 0.0217
AATGCGGG | 0.156
CCGATAAC | 0.135
ACAGTGAT | 0.105
ATTAGGAG | 0.108
GGCGGTAA | 0.0971
GTTTTGAA | 0.213
AAGGTTCC | 0.0932
ATCGCACC | -0.0825
CCAAGTGA | -0.0871
GGCGTACC | -0.061
TACTTTGA | 0.155
TAACGGTA | 0.102

Sequence | PBM E-score
GGGTCCGA | -0.206
CCCCTAAA | -0.365
CCTGATAA | 0.0793
CATGGAGA | 0.0398
CCAGGAGA | 0.0757
GGATCGCA | -0.0884
CAGGCTGC | -0.118
GTATTAAA | 0.283
CATCGCTC | -0.186
CCTAACAA | 0.165
GTACTCAC | 0.0798
TTGTCAAA | 0.0834
TAGGTAGA | 0.0806
AAGTAAAG | 0.05
CCTTCAAA | 0.0448
ATTCCCAG | 0.137
GCAAATAA | 0.322
ATATGCTA | 0.172
CGTCTCTA | -0.108
AACCTTCG | 0.106
CTGGCGAC | -0.17
AACCGTCA | 0.0483
CTTGAATA | 0.155
CCTCCCAA | -0.191
CAAATTGC | 0.0369

Sequence | PBM E-score
GGAGGAGA | -0.121
GAACTAGA | 0.0565
ACGCTGCT | -0.205
ACTAGCAC | -0.0462
CCGGTGAC | -0.192
ATTTTATA | 0.309
AGTTGTAA | 0.145
CTCCGATA | 0.0359
AGCAATGG | -0.129
GCTTCTAC | 0.0543
AGGACAGA | -0.0311
GACCAGTC | -0.0986
ATGGTGAG | -0.0822
GTGCGACA | -0.235
AGGAATGA | 0.207
ACGCAAGT | -0.0108
AGTTAGTC | 0.119
CATGGCAC | -0.195
CGCGGGAC | -0.12
CCACTCGA | -0.0674
AACATTGA | 0.136
CGTGAGAA | -0.0558
CGTATCGA | -0.0271
CGTGGGCA | -0.176
CACTTCCG | -0.125

Sequence | PBM E-score
ACTTCCCG | 0.137
AGTTAGGA | 0.0659
GGCTAGTA | 0.137
ACCCTCGT | -0.179
CATGGTAA | 0.078
AATTGCGC | 0.125
CTTTCCAC | 0.0449
ACGTATAC | 0.181
CAACAATA | 0.151
ACCCCCCT | -0.376
AGGATTCA | 0.114
TACTGTCA | 0.00818
CTACCGAA | 0.109
CTGGAGTC | -0.00104
CTCCAAGA | 0.0931
CGCCTAAC | -0.0857
GCTAGTGA | 0.13
AGTACCAC | -0.105
ACCCTCAT | -0.271
CGGCGCAG | -0.112
CCGGTTAG | -0.102
ATACTCCG | 0.245
TAACAGGA | -0.0535
AACGAGTG | 0.0515
CACGCATC | -0.0486

Sequence | PBM E-score
CGAAATGC | 0.00684
GCCGATAC | -0.113
AACGTTCC | -0.0892
GGAGTTTA | 0.246
CTTGAGAA | 0.0578
ATTTCGTA | 0.0835
ATACCAAA | 0.128
CCGATTTC | -0.0712
AACTTCTC | 0.103
CCCCGCCC | 0.0342
ACAGATAG | -0.0808
ATGCACTC | -0.0897
GCTGGGTA | -0.15
CCATTGAG | 0.0954
ACTTATGG | -0.0148
AACAGTAT | 0.147
GTTGGACA | -0.0693
ATAGAAAG | 0.0673
ATTTATTG | 0.0954
ATACCGCG | 0.00436
GAGCGCTC | -0.212
TACTATGA | 0.199
AGTCGGAC | 0.00348
GACCATCA | -0.0102
CAAGTTGA | 0.113

Sequence | PBM E-score
CTGCCGCC | -0.325
GTTGCCTA | 0.0283
AAAGTTAA | 0.323
ACTTATAC | 0.244
AACGGCAG | -0.0412
AAGTAAGT | 0.118
GATCTCGC | 0.017
CAATTCTC | 0.0403
ATTGTGTC | 0.179
CCCATAAG | -0.165
AATGGCTA | 0.12
ACCCTAGG | -0.0462
AGCCTCCT | -0.17
CCAAAAGA | 0.206
GGGTATGA | 0.0197
GTTAGCAA | 0.233
CACCGACG | -0.0189
AGGCGAGC | -0.174
ATATCCAC | 0.145
AAATGAGC | 0.0658
AGGCGTAT | 0.179
ATTCGGCG | 0.0307
